Some of the results follow.

The subject of the assay is T1, C. trachomatis L2/434/Bu expressing GFP (CTL2-GFP).
T1 construct: L2/434/Bu GFP intracellular growth in HeLa cells
Set-up: species or system HeLa; C. trachomatis total inclusion area by high-content imaging, normalised to DMSO. Conditions: total inclusion area; 28.5 h, 10 µM; inhibitor. The essentials: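 Post-fluorescence-read fixation, DNA staining with Hoechst and high-content imaging; GFP inclusion area and number per well, and nuclei counts, used as proxies for bacterial growth and host viability.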
Regarding `CCOc1ccc(C(=O)CCNCC(=O)O)cc1` [CBK286657], the “% of control remaining” value was found to be 84.1198. `Cc1ccc(NC(=O)CSc2nnc(-c3cnccn3)s2)cc1` [CBK269872]: the “% of control remaining” value was 101.421.

With `O=C1/C(=N\O)c2ccccc2N1Cc1ccccc1` [CBK288484], the “% of control remaining” value is listed as 94.4046. For the compound `Cc1ccc(S(=O)(=O)NNC(=O)COc2cccc3cccnc23)cc1` [CBK268788], the “% of control remaining” value is on record as 73.9657.

Regarding `S=C(NCCc1ccccn1)NCCN1CCOCC1` [CBK268296], the “% of control remaining” value was determined as 106.539. `Cc1ccc(CNS(=O)(=O)c2ccc3ccccc3c2)cc1` [CBK266501]: the “% of control remaining” value stood at 79.3522. Turning to `Nc1ncc(-c2cccc(F)c2)nc1Nc1ccc2[nH]ccc2c1` [CBK063851], the “% of control remaining” value is reported as 116.137. Take `COc1ccccc1CN(C)C(C)C(=O)Nc1ccc(NC(C)=O)cc1` (stereo not shown) [CBK305873]: the “% of control remaining” value is recorded as 52.6276. For `COCC(=O)N1CCc2nc(-c3ccc(F)cc3)sc2C1` [CBK281673], the “% of control remaining” value is recorded as 62.92. To `NC1CC(c2cc(NCCOc3ccccc3Cl)ncn2)C1` (stereo not shown) [CBK307167] belongs 61.5421; to `O=C(CCn1c(C(F)F)cc2cccnc21)NCc1ccccn1` [CBK285068], 110.487; to `c1ccc(OCCSc2cc(N3CCCC3)ncn2)cc1` [CBK103689], 80.6817.

With `Cc1cccnc1C(Cc1ccsc1)NC(=O)Cn1ccnc1` (stereo not shown) [CBK284802], the “% of control remaining” value was 102.504. For the compound `CC1CCc2onc(C(=O)NCc3nccn3C)c2C1` (stereo not shown) [CBK281514], the “% of control remaining” value was 86.7934. `O=C(NCCCn1ccnc1)C1CCN(C(=O)c2cccc(Cl)c2)CC1` [CBK307596]: the “% of control remaining” value is listed as 75.972. To `CCC1CCCCN1Cc1nc2c(c(=O)n(C)c(=O)n2C)n1CCCO` (stereo not shown) [CBK269365] belongs 118.292; to `CCc1nn(CC(=O)NCC2CC2)c(=O)c2cc3sc(C)cc3n12` [CBK284100], 75.85; to `FC(F)(F)c1cccc(CSc2nccnc2N2CCCC2)c1` [CBK107178], 76.7906. For `Cn1ccnc1SCCNC(=O)c1cccc(Cn2cccn2)c1` [CBK282112], the “% of control remaining” value was 70.2163. Take `CC(=O)Nc1nc(-c2ccccc2C)ccc1C(=O)N(C)C` [CBK106328]: the “% of control remaining” value is reported as 88.4936. Turning to `Cc1ccc(-c2cc(C(=O)NCCCn3ccnc3)no2)cc1` [CBK268200], the “% of control remaining” value is 91.9018. As to `Cc1nccn1CC1CCCN(Cc2nc3ccccc3[nH]2)C1` (stereo not shown) [CBK281619], the “% of control remaining” value is recorded as 99.0608.

For the compound `O=C(c1cccc(Br)c1)N1CCN(S(=O)(=O)N2CCOCC2)CC1` [CBK267470], the “% of control remaining” value came out at 110.916. Turning to `Cc1nc(N)nc(N2CCN(C)CC2)n1` [CBK015681], the “% of control remaining” value was found to be 87.8268.

For `CC1CCN(C(=O)C2CCCCC2C(=O)O)CC1` (stereo not shown) [CBK028392], the “% of control remaining” value is 111.373. With `O=C(C[n+]1ccccc1)c1ccccc1Cl` [CBK016283B], the “% of control remaining” value is 19.5552. To `CCn1c(CCCNC=O)nc2ccccc21` [CBK269551] belongs 76.1231; to `O=C(c1ccco1)N1CCN(c2cc(-c3cc(C(F)(F)F)cc(C(F)(F)F)c3)ncn2)CC1` [CBK037734], 81.4573; to `CC1=[N+]([O-])C2(N)CCc3nonc3C2(O)C1` (stereo not shown) [CBK261513], 97.6489. On to `O=C(Nc1ccc(Cl)cc1Cl)C1CC2CCC1C2` (stereo not shown) [CBK058237], for which the “% of control remaining” value is given as 38.7208. To `O=C(O)CN1/C(=C\C=C2/SC(=S)N(c3ccccc3)C2=O)Sc2ccccc21` [CBK265251] belongs 120.581; to `COc1ncc(-c2nccnc2OCC2COc3ccccc3O2)c(OC)n1` (stereo not shown) [CBK106754], 106.272. As for `CSCCC(=O)Nc1ccc2c(ccn2Cc2ccccc2)c1` [CBK159732], the “% of control remaining” value is reported as 39.6042. As for `Cc1ccc(NC(=O)C(=O)NCCCn2ccnc2)cc1C` [CBK264157], the “% of control remaining” value was found to be 117.593. The value for `Cn1c(SCCCN2C(=O)c3cccc4cccc(c34)C2=O)nnc1-c1ccncc1` [CBK268951] was 100.629; that for `COc1ccc(/C=C/c2nc3ccccc3s2)cc1S(=O)(=O)N1CCOCC1` [CBK269373] was 96.5358; that for `CC[C@@H](Cn1ncc2ccccc2c1=O)NC(=O)CC1c2ccccc2Oc2ccccc21` [CBK286174] was 115.094.

Regarding `O=C(c1cnc2ccccc2c1)N1CCc2ccccc21` [CBK200284], the “% of control remaining” value came to 117.419. As to `N#Cc1c(N)nc(SCC(=O)O)c(C#N)c1-c1ccc(O)cc1` [CBK261270], the “% of control remaining” value is 103.396. Turning to `O=C(O)CC1SC(N/N=C/c2ccco2)=NC1=O` (stereo not shown) [CBK261371], the “% of control remaining” value stood at 89.9176.

In the case of `COc1ccc(Nc2cn(C)nc2C(=O)O)cc1` [CBK269814], the “% of control remaining” value stood at 69.6302. On to `COc1ccc(NC(=O)CSc2nc(O)cc(-c3ccccc3)n2)cc1OC` [CBK263657], for which the “% of control remaining” value is listed as 110.937. For the compound `O=C(O)c1ccc(N2C(=O)CC(N3CCN(Cc4ccccc4)CC3)C2=O)cc1` (stereo not shown) [CBK261403], the “% of control remaining” value worked out at 90.241.

Consider `COC(CNC(=O)N(C)Cc1nncn1C(C)C)c1cccs1` (stereo not shown) [CBK306556], for which the “% of control remaining” value is given as 69.2884. `CCn1c(C)nc2cc(C(=O)NC3CCCOC3)ccc21` (stereo not shown) [CBK282066]: the “% of control remaining” value is reported as 104.733. Consider `O=S(=O)(Nc1nnn[nH]1)c1ccc(-c2ccccn2)s1` [CBK062589], for which the “% of control remaining” value is 85.2262. The value for `CC(C)(C)OC(=O)NCCNC(=O)c1cccnc1NCc1ccc2c(c1)OCO2` [CBK160117] was 97.748.

In the case of `OCCN1CCN(c2cncc(-c3cccc(OC(F)(F)F)c3)n2)CC1` [CBK065941], the “% of control remaining” value was 84.1156. To `O=C(O)C1C2C=CC(C2)C1C(=O)N1CCc2ccccc21` (stereo not shown) [CBK286537] belongs 143.246.

Regarding `COc1ccc(Cl)cc1NC(=O)CSc1nc2cc3ccccc3cc2[nH]1` [CBK268410], the “% of control remaining” value amounted to 40.7484.

Regarding `Cc1ccc(C2C(C(=O)c3ccccc3)=C(O)C(=O)N2CCC(=O)O)cc1` (stereo not shown) [CBK286642], the “% of control remaining” value is recorded as 62.5321. As for `Cc1cc(NC(=O)CN(C)c2ncccc2C#N)no1` [CBK304182], the “% of control remaining” value stood at 97.9398. As for `CCN(CC)C(=O)c1[nH]c2ccccc2c1NS(=O)(=O)Cc1ccccc1` [CBK050107], the “% of control remaining” value worked out at 76.6338. Turning to `COc1ccnc(N2CCN(C(=O)c3cnn(C)c3)CC2)n1` [CBK306125], the “% of control remaining” value is given as 46.1175. As for `COc1cc(/C=C2/C(=O)N(c3ccc(Cl)c(C(=O)O)c3)N=C2C)ccc1Oc1nc2c(c(=O)n(C)c(=O)n2C)n1C` [CBK262962], the “% of control remaining” value was determined as 104.426. The value for `CC(=O)Nc1ccc(S(=O)(=O)Nc2ccc(CC#N)cc2)cc1Cl` [CBK044058] was 83.863; that for `CC(=O)Nc1ccc(-c2cccc(COC3CCN(C(=O)Cc4c[nH]cn4)CC3)c2)cc1` [CBK149497] was 101.365; that for `COc1ccc(C(=O)[C@@H]2CCCC[C@H]2N)cc1` [CBK023040C] was 114.05.

`Cc1ccccc1OCc1nc(C#N)c(NCc2ccc3c(c2)OCO3)o1` [CBK073372]: the “% of control remaining” value came out at 100.805. For `O=C(Cn1nc(C(=O)O)c2ccccc2c1=O)c1ccc(S(=O)(=O)N2CCOCC2)cc1` [CBK296939], the “% of control remaining” value worked out at 65.4943. On to `CN(Cc1ccccc1)Cc1ccccc1O` [CBK261879], for which the “% of control remaining” value was found to be 93.8605. As for `CN1CCN(c2ccc(C(=O)NC3CCCC3)cc2)CC1` [CBK200119], the “% of control remaining” value amounted to 107.19. For `COc1ccc(CNC(=O)C[C@@H]2[C@H](O)CCC3[C@]4(C)CO[C@@H](CN)O[C@@H]4CC[C@]32C)cc1` (stereo partly shown) [CBK289575], the “% of control remaining” value was 114.235. With `CN(C)CCCNc1ccc(C(F)(F)F)cn1` [CBK269414], the “% of control remaining” value is recorded as 121.185. To `CN1C[C@@H](NC(=O)Nc2ccccc2)C[C@H]1c1nc(-c2ccccc2)no1` [CBK288877] belongs 101.743; to `CC(C)(C)OC(=O)N1Cc2ccccc2C[C@H]1C(=O)N1CCC(C(=O)O)CC1` [CBK286761], 90.664; to `COc1ccc(-c2cc(=O)n3cc[nH]c3n2)cc1` [CBK006659], 95.2544. To `COc1ccc(C2(CN3CCC(NC(C)=O)CC3)CCCC2)cc1` [CBK283241] belongs 94.7343. Consider `COCCN1C(=O)C2(CC(=O)N(CCNS(C)(=O)=O)C2=O)c2cc(C)ccc21` (stereo not shown) [CBK075479], for which the “% of control remaining” value is on record as 73.6479. Turning to `Fc1ccc2c3c([nH]c2c1)C1(CCN(Cc2cc(F)c(F)c(F)c2)CC1)NCC3` [CBK039688], the “% of control remaining” value worked out at 69.8194.

With `CN(C)c1ncccc1OC1CCN(c2ccnc(C3CC3)n2)C1` (stereo not shown) [CBK306182], the “% of control remaining” value was 1.704. As to `O=C(c1nccs1)C1CCN(C(=O)Cc2ccc(Cl)cc2)CC1` [CBK284160], the “% of control remaining” value is 83.8339. For `Cc1ccc(NC(=O)c2cnc3scc(C)n3c2=O)cc1C` [CBK287461], the “% of control remaining” value is 73.2992. Consider `O=C(CCn1c(C(F)F)cc2cccnc21)N1CCCC(CO)C1` (stereo not shown) [CBK284985], for which the “% of control remaining” value is recorded as 103.42. As for `CC(C)(CN)CN(Cc1ccncc1)C(=O)Nc1ccc(C(C)(C)C)cc1` [CBK002459C], the “% of control remaining” value came out at 73.8853. Turning to `CCNC(=O)N(C)c1c(CC)nc2ccc(C(=O)N3CCN(C(C)=O)CC3)cn12` [CBK146362], the “% of control remaining” value turned out to be 103.939. Take `Cc1ccc(S(=O)(=O)c2ccc(C)c(S(=O)(=O)NC3CCCCC3)c2)cc1S(=O)(=O)NC1CCCCC1` [CBK261653]: the “% of control remaining” value came out at 110.213.

As for `O=S(=O)(Nc1cccc(Cl)c1Cl)c1cccc2nsnc12` [CBK067296], the “% of control remaining” value is given as 67.29. Consider `COc1cc(OC)nc(Oc2ccccc2C(=O)O)n1` [CBK092218], for which the “% of control remaining” value is given as 103.539.

Regarding `Cc1nn(C)c(C)c1CN1CCN(C(=S)Nc2ccc(S(N)(=O)=O)cc2)CC1` [CBK267030], the “% of control remaining” value is reported as 114.19. To `COc1ccc(C(NC(=O)[C@H]2CCCN2C(=O)NCc2ccccc2C)c2ccccc2C)cn1` (stereo partly shown) [CBK075051] belongs 85.0797.

Turning to `CC1CN(C(=S)Nc2ccc(NC(=S)N3CC(C)OC(C)C3)cc2)CC(C)O1` (stereo not shown) [CBK004991], the “% of control remaining” value was determined as 78.9724.

Source of the values: paper PMC12040169 (PLOS Biology, 2025).
